In the supplement of paper PMC4604168 (melanoma cell lines):
This is one part of the list. Many values rest on one well or one pass, so single values are uncertain.

tested on: MeWo; assay: cell count relative to DMSO control; melanoma cells; higher = more viable cells; settings: library dose: standard library concentration; 72 h
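Also: cells treated in 1,536-well plates, then fixed and DAPI-stained, with nuclei counted from automated high-throughput microscope images.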

| SMILES | cell count [%] |
| --- | --- |
| CCCCCCCCc1ccc(CCC(N)(CO)CO)cc1 [fingolimod] + Cc1cc([N+](=O)[O-])ccc1NS(=O)(=O)c1cc(Cl)ccc1Cl [FH535] (first compound 10 µM, partner dose 5 µM) | 37.1 |
| CN(NC(=O)CC(=O)NN(C)C(=S)c1ccccc1)C(=S)c1ccccc1 + COc1cc2c(Oc3ccc4[nH]c(C)cc4c3F)ncnc2cc1OCCCN1CCCC1 [cediranib] (first compound 0.03 µM, partner dose 2 µM) | 16.9 |
| CCc1ccc(CCOc2ccc(CC3SC(=O)NC3=O)cc2)nc1 (stereo unspecified) [pioglitazone] + O=C1NC(=O)/C(=C/c2ccc(-c3ccc(F)cc3O)o2)S1 [AS252424] (first compound 10 µM, partner dose 5 µM) | 101 |
| Cc1ccc(NC(=O)c2cccc(N(C)C)c2)cc1NC(=O)c1ccc(O)cc1 + CCCCCCCCCCCC1=C(O)C(=O)C=C(O)C1=O [Embelin] (first compound 10 µM, partner dose 6 µM) | 99.4 |
| Cc1ccc(NC(=O)c2cccc(N(C)C)c2)cc1NC(=O)c1ccc(O)cc1 + COc1ccc2c(c1)CCC1C2CCC2(C)C(NCCCCCCN3C(=O)C=CC3=O)CCC12 [U73122] (first compound 10 µM, partner dose 2 µM) | 65.6 |
| CC(C)(C)c1cnc(CSc2cnc(NC(=O)C3CCNCC3)s2)o1 + CN(NC(=O)CC(=O)NN(C)C(=S)c1ccccc1)C(=S)c1ccccc1 [STA4783] (first compound 0.05 µM, partner dose 0.03 µM) | 11.6 |
